Test results: the supplement of paper PMC11417369
± gives the standard deviation of the averaged measurements. The list shows a part of the results.

Tested on: PfAP2-LT AP2 domain (GST-tagged)
Assay: gcPBM binding intensity (ln(normalized median fluorescence intensity)); higher = stronger DNA binding
Summary of the method: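 GST-tagged P. falciparum DNA-binding domains, expressed in E. coli (about 25 μg on average), were applied for 1 h to an Agilent 4 × 180k array of primer-extended double-stranded 36-bp intergenic genomic probes plus negative controls. The binding buffer was 1× PBS with 1% milk, 0.2 mg/ml BSA, 0.5% salmon testes DNA and 0.03% Triton X-100. Bound protein was detected with Alexa488 anti-GST antibody and scanned at 488 nm. Binding intensity is the highest Masliner-normalised natural-log median intensity across replicate spots of either probe orientation.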

Sequence | gcPBM binding intensity (ln)
TGGCAAAATAGGCACACACACATATACATATATATT [CACACA_site1059] | 9.69 ± 0.48
ATATTATAGTATATAACACACATTTTTCATAACACT [CACACA_site6331] | 8.97 ± 0.41
TATATAATTAAAATAACACACATATATAAAAATATA [CACACA_site2990] | 8.87 ± 0.4
TTTAGATAATTCATTACACACATGTATATTTATATA [CACACA_site7602] | 8.91 ± 0.33
TTTTTTTTTTTTTTATGTACGAAAGAAAAGCACATA [XGTACX_site8261] | 8.13 ± 0.41
TAACGAATTTAAATTTGTACATATATAAATATATAA [XGTACX_site2168] | 8.41 ± 0.44
ATCATCTATGTTATTACACACGTTATGTTATTATAA [CACACA_site5502] | 9.2 ± 0.37
ATAATACACGATTATTTTCCCTTTATGTAAATATAT [CACACA_negctrl_site1107] | 8.7 ± 0.47
AAAAAAAAAAAATGTGTGCACATTATTTCAACTTAA | 8.89 ± 0.42
TATATATATAATATTGCACACAAAATTAAAAGTAAA [CACACA_site7889] | 8.94 ± 0.45
TATTTTATCTATTTGTGTACTTATATTTATGCAAAA [XGTACX_site1499] | 8.7 ± 0.35
AAATTATTAAAAAAAAGTACATATATATATATATAT [XGTACX_site8313] | 9.43 ± 0.099
ATAAATAATATATATACACACATATCTATACATATT [CACACA_site487] | 9.03 ± 0.33
TATATTCTTTATAGGTGTACTTAATAAATAAAAAAT [XGTACX_site5378] | 8.3 ± 0.33
TATATATATGTGTTTACACACAATAATGAATTAAAA [CACACA_site4659] | 8.89 ± 0.45
TATGAACATAAATTTGCACACTGGATATAATATATA [CACACA_site2155] | 8.89 ± 0.38
TATCTAGTTACTCCTTGTACATAATAAATGATTTTT [XGTACX_site5674] | 8.63 ± 0.49
AGAAAGAAAGAATACACACACACATATATAAATATC [CACACA_site7716] | 9.87 ± 0.38
ATTATCAATATGAAGGTGCATTTAAATAATATTTAC | 8.66 ± 0.42
AAATATTATAGCACCACACACTTATTTTATTTATAT [CACACA_site7133] | 9.09 ± 0.33
ACTAAACTTTTATGTACACACATATAACATTAATTT [CACACA_site5276] | 9.07 ± 0.41
TTGGTACCTATAGATACACACATATATACCTATATA [CACACA_site5812] | 8.93 ± 0.37

Sequence | gcPBM binding intensity (ln)
TACAAAATGGGGAACACACACATATATATATATATA [CACACA_site3844] | 10.2 ± 0.05
TACGTAAAAATAGGACGTACTTATTTAGAAACCATA [XGTACX_site2498] | 8.72 ± 0.49
ATTTATATTTATGATACACACACGTATATTCACATA [CACACA_site460] | 9.32 ± 0.42
ATTTGTTTATAGGCCATAAAATATTTAATTCATTTG [CACACA_negctrl_site1824] | 8.55 ± 0.47
AGTATTATATTTGTATGTACGTAGTAATATATAAAA [XGTACX_site528] | 8.7 ± 0.35
TTTTTCATAAATATATGTACATATATTTTATATAAC [XGTACX_site3402] | 8.69 ± 0.41
AATGTAATATAAATATGTACATAATATATATAATTA [XGTACX_site4762] | 8.75 ± 0.4
ATATATTTATATATATGTACTTAAAACATTTCGATG [XGTACX_site328] | 8.54 ± 0.32
TTTTTATTTTTTTAGTATACGTACTAGGTTTGTTCT [XGTACX_site645] | 8.92 ± 0.52
AACAAGAAAAAAAAAAAAAAAAAAAAAAAATATTTT [XGTACX_negctrl_site428] | 8.41 ± 0.43
ATATATATATTTTTATGAGGCATAAGTAATATTTTT [TGCATGCA_negctrl_site317] | 8.53 ± 0.4
ATATAAAATATTAGTAGTACCATTAACAGTATTGTT [XGTACX_site5912] | 8.77 ± 0.33
ATTAAGATGTATATATGTACATATTACATACATATA [XGTACX_site8657] | 8.8 ± 0.35
AAAAAAAATTAATTAGTGCAAAATATATACAAAATA [GTGCAC_site9762] | 8.86 ± 0.48
TAAGAAAATATTTATGTATGCATGTCCTAATATTTC [TGCATGCA_site295] | 8.68 ± 0.46
AATGAAATATGGATGGGTACACATTTGATTTTATTA [XGTACX_site6155] | 8.75 ± 0.49
TATGAAAAAAAAAATACACACACGAGTTGTTATACA [CACACA_site3188] | 9.14 ± 0.3
ATATATATAAACATATGTACACATATATATAATACA [XGTACX_site1848] | 9.05 ± 0.36
TGTATGTATAGAAACACACATACATATATATAATAT [CACACA_site1405] | 9.02 ± 0.31
TATATATATAATATATGTACATATTAATTATGTATA [XGTACX_site5366] | 8.56 ± 0.36
TGAATAAATATATATACACACATATATGTATATATT [CACACA_site1642] | 8.95 ± 0.37
GAGTTTACACTCCCTTGTACATATTCATTTTTATTC [XGTACX_site5208] | 9.04 ± 0.46
